Converted amounts (≈) assume the structure as drawn. At least one peptide structure holds a part that was inferred or is arguable (an end, a ring closure or a residue). Non-standard residues stand in square brackets, D forms with d. Residues, ends and D or L forms follow the SMILES beside them. *: point of attachment. dAla(cis-4-NHCOPyz-cHex) = N[C@H](C[C@H]1CC[C@@H](NC(=O)c2cnccn2)CC1)C(=O)O; dPhe(3,4-Cl2) = N[C@H](Cc1ccc(Cl)c(Cl)c1)C(=O)O; dPhe(4-Cl) = N[C@H](Cc1ccc(Cl)cc1)C(=O)O; Pyrimidin2yl(4,6-Me2) = Cc1cc(C)nc(*)n1; d2Nal = N[C@H](Cc1ccc2ccccc2c1)C(=O)O; Nicotinoyl(6-Me) = Cc1ccc(C(=O)*)cn1; dLys(Me2) = CN(C)CCCC[C@@H](N)C(=O)O; Lys(iPr) = CC(C)NCCCC[C@H](N)C(=O)O; Orn(iPr) = CC(C)NCCC[C@H](N)C(=O)O; NH(4-MeO-phenyl) = COc1ccc(N*)cc1; Pyrazinecarbonyl = O=C(c1cnccn1)*; 3Pal = N[C@@H](Cc1cccnc1)C(=O)O; d3Pal = N[C@H](Cc1cccnc1)C(=O)O; Nicotinoyl = O=C(c1cccnc1)*; Picolinoyl = O=C(c1ccccn1)*; dOrn = NCCC[C@@H](N)C(=O)O; Orn = NCCC[C@H](N)C(=O)O; Me2Gly = CN(C)CC(=O)*; Bz = O=C(c1ccccc1)*
Experiments:
4-day cycling rats = assay: antiovulatory activity (AOA) in rats, single sc injection; assay type: in vivo, rat; details: for AOA %/μg 1.0: 1.0 μg sc in corn oil; for AOA %/μg 0.5: 0.5 μg sc in corn oil
rat mast cells = assay: in vitro histamine release test; assay type: cell-based; details: for In Vitro Histamine Release ED50: rat mast cells, ± SEM; for ED 50 (histamine release), starred test series: test series in which the standard compound had ED 50 0.46 instead of the usual 0.1-0.2

| SMILES | AOA %/μg 1.0 (4-day cycling rats) [%] | In Vitro Histamine Release ED50 (rat mast cells) [µg/mL] | AOA %/μg 0.5 (4-day cycling rats) [%] | ED 50 (histamine release), starred test series (rat mast cells) [µg/mL] | also measured |
| --- | --- | --- | --- | --- | --- |
| CC(=O)N[C@H](Cc1ccc2ccccc2c1)C(=O)N[C@H](Cc1ccc(Cl)cc1)C(=O)N[C@H](Cc1cccnc1)C(=O)N[C@@H](CO)C(=O)N[C@@H](CCCNC(=O)c1cccnc1)C(=O)N[C@H](CCCCNC(=O)c1cccnc1)C(=O)N[C@@H](CC(C)C)C(=O)N[C@@H](CCCNC(C)C)C(=O)N1CCC[C@H]1C(=O)N[C@H](C)C(N)=O [compound 25333] (Ac-[d2Nal][dPhe(4-Cl)][d3Pal]S[Orn](Nicotinoyl)[dK](Nicotinoyl)L[Orn(iPr)]P[dA]-NH2) | 73 | 57 ± 13 |  |  |  |
| CC(=O)N[C@H](Cc1ccc2ccccc2c1)C(=O)N[C@H](Cc1ccc(Cl)cc1)C(=O)N[C@H](Cc1cccnc1)C(=O)N[C@@H](CO)C(=O)N[C@@H](CCCCNC(=O)c1cccnc1)C(=O)N[C@H](CCCNc1nc(C)cc(C)n1)C(=O)N[C@@H](CC(C)C)C(=O)N[C@@H](CCCCNC(C)C)C(=O)N1CCC[C@H]1C(=O)N[C@H](C)C(N)=O [compound 25334] (Ac-[d2Nal][dPhe(4-Cl)][d3Pal]SK(Nicotinoyl)[dOrn](Pyrimidin2yl(4,6-Me2))L[Lys(iPr)]P[dA]-NH2) | 100 | 6.7 ± 2.2 | 40 |  |  |
| CC(=O)N[C@H](Cc1ccc2ccccc2c1)C(=O)N[C@H](Cc1ccc(Cl)cc1)C(=O)N[C@H](Cc1cccnc1)C(=O)N[C@@H](CO)C(=O)N[C@@H](CCCNC(=N)N)C(=O)N[C@H](CCCCNC(=O)c1cccnc1)C(=O)N[C@@H](CC(C)C)C(=O)N[C@@H](CCCCNC(C)C)C(=O)N1CCC[C@H]1C(=O)N[C@H](C)C(N)=O [compound 25335] (Ac-[d2Nal][dPhe(4-Cl)][d3Pal]SR[dK](Nicotinoyl)L[Lys(iPr)]P[dA]-NH2) | 17 | 4.3 ± 0.52 | 43 |  |  |
| CC(=O)N[C@H](Cc1ccc(Cl)cc1)C(=O)N[C@H](Cc1ccc(Cl)cc1)C(=O)N[C@H](Cc1cccnc1)C(=O)N[C@@H](CO)C(=O)N[C@@H](Cc1ccc(O)cc1)C(=O)N[C@H](CCCCNC(=O)c1cccnc1)C(=O)N[C@@H](CC(C)C)C(=O)N[C@@H](CCCCNC(C)C)C(=O)N1CCC[C@H]1C(=O)N[C@H](C)C(N)=O [compound 25337] (Ac-[dPhe(4-Cl)][dPhe(4-Cl)][d3Pal]SY[dK](Nicotinoyl)L[Lys(iPr)]P[dA]-NH2) | 100 |  |  | 198 ± 33 (≈ 132 µM) |  |
| CC(=O)N[C@H](Cc1ccc(Cl)c(Cl)c1)C(=O)N[C@H](Cc1ccc(Cl)cc1)C(=O)N[C@H](Cc1cccnc1)C(=O)N[C@@H](CO)C(=O)N[C@@H](Cc1ccc(O)cc1)C(=O)N[C@H](CCCCNC(=O)c1cccnc1)C(=O)N[C@@H](CC(C)C)C(=O)N[C@@H](CCCCNC(C)C)C(=O)N1CCC[C@H]1C(=O)N[C@H](C)C(N)=O [compound 25338] (Ac-[dPhe(3,4-Cl2)][dPhe(4-Cl)][d3Pal]SY[dK](Nicotinoyl)L[Lys(iPr)]P[dA]-NH2) | 89 |  | 0 | 311 ± 65 (≈ 202 µM) |  |
| CC(=O)N[C@H](Cc1ccc2ccccc2c1)C(=O)N[C@H](Cc1ccc(Cl)cc1)C(=O)N[C@H](Cc1cccnc1)C(=O)N[C@@H](CO)C(=O)N[C@@H](Cc1cccnc1)C(=O)N[C@H](CCCCNC(=O)c1cccnc1)C(=O)N[C@@H](CC(C)C)C(=O)N[C@@H](CCCCNC(C)C)C(=O)N1CCC[C@H]1C(=O)N[C@H](C)C(N)=O [compound 25383] (Ac-[d2Nal][dPhe(4-Cl)][d3Pal]S[3Pal][dK](Nicotinoyl)L[Lys(iPr)]P[dA]-NH2) | 75 |  |  | 86 ± 28 (≈ 57.1 µM) |  |
| CC(=O)N[C@H](Cc1ccc2ccccc2c1)C(=O)N[C@H](Cc1ccc(Cl)cc1)C(=O)N[C@H](Cc1cccnc1)C(=O)N[C@@H](CO)C(=O)N[C@@H](Cc1cccnc1)C(=O)N[C@H](CCCCNC(=O)c1cccnc1)C(=O)N[C@@H](CC(C)C)C(=O)N[C@@H](CCCNC(C)C)C(=O)N1CCC[C@H]1C(=O)N[C@H](C)C(N)=O [compound 25384] (Ac-[d2Nal][dPhe(4-Cl)][d3Pal]S[3Pal][dK](Nicotinoyl)L[Orn(iPr)]P[dA]-NH2) | 100 |  |  | 55 ± 13 (≈ 36.9 µM) |  |
| CC(=O)N[C@H](Cc1ccc2ccccc2c1)C(=O)N[C@H](Cc1ccc(Cl)cc1)C(=O)N[C@H](Cc1cccnc1)C(=O)N[C@@H](CO)C(=O)N[C@@H](CCCNC(=N)N)C(=O)N[C@H](CCCCNC(=O)c1ccccc1)C(=O)N[C@@H](CC(C)C)C(=O)N[C@@H](CCCCNC(C)C)C(=O)N1CCC[C@H]1C(=O)N[C@H](C)C(N)=O [compound 25385] (Ac-[d2Nal][dPhe(4-Cl)][d3Pal]SR[dK](Bz)L[Lys(iPr)]P[dA]-NH2) | 63 |  |  | 8.7 ± 3 (≈ 5.75 µM) |  |
| CC(=O)N[C@H](Cc1ccc2ccccc2c1)C(=O)N[C@H](Cc1ccc(Cl)cc1)C(=O)N[C@H](Cc1cccnc1)C(=O)N[C@@H](CO)C(=O)N[C@@H](CCCCNC(=O)c1ccc(C)nc1)C(=O)N[C@H](CCCCNC(=O)c1ccc(C)nc1)C(=O)N[C@@H](CC(C)C)C(=O)N[C@@H](CCCCNC(C)C)C(=O)N1CCC[C@H]1C(=O)N[C@H](C)C(N)=O [compound 25386] (Ac-[d2Nal][dPhe(4-Cl)][d3Pal]SK(Nicotinoyl(6-Me))[dK](Nicotinoyl(6-Me))L[Lys(iPr)]P[dA]-NH2) | 100 |  | 56 | > 300 |  |
| CC(=O)N[C@H](Cc1ccc2ccccc2c1)C(=O)N[C@H](Cc1ccc(Cl)cc1)C(=O)N[C@H](Cc1cccnc1)C(=O)N[C@@H](CO)C(=O)N[C@@H](CCCCNC(=O)CN(C)C)C(=O)N[C@H](CCCCNC(=O)c1ccccc1)C(=O)N[C@@H](CC(C)C)C(=O)N[C@@H](CCCCNC(C)C)C(=O)N1CCC[C@H]1C(=O)N[C@H](C)C(N)=O [compound 25508] (Ac-[d2Nal][dPhe(4-Cl)][d3Pal]SK(Me2Gly)[dK](Bz)L[Lys(iPr)]P[dA]-NH2) | 100 | 24 ± 0.3 |  |  |  |
| CC(=O)N[C@H](Cc1ccc2ccccc2c1)C(=O)N[C@H](Cc1ccc(Cl)cc1)C(=O)N[C@H](Cc1cccnc1)C(=O)N[C@@H](CO)C(=O)N[C@@H](CCCCNC(=O)CN(C)C)C(=O)N[C@H](CCCCNC(=O)c1cccnc1)C(=O)N[C@@H](CC(C)C)C(=O)N[C@@H](CCCCNC(C)C)C(=O)N1CCC[C@H]1C(=O)N[C@H](C)C(N)=O [compound 25509] (Ac-[d2Nal][dPhe(4-Cl)][d3Pal]SK(Me2Gly)[dK](Nicotinoyl)L[Lys(iPr)]P[dA]-NH2) |  | 34 ± 1.1 | 20 |  |  |
| CC(=O)N[C@H](Cc1ccc2ccccc2c1)C(=O)N[C@H](Cc1ccc(Cl)cc1)C(=O)N[C@H](Cc1cccnc1)C(=O)N[C@@H](CO)C(=O)N[C@@H](CCCCNC(=O)c1ccccn1)C(=O)N[C@H](CCCCNC(=O)c1cccnc1)C(=O)N[C@@H](CC(C)C)C(=O)N[C@@H](CCCCNC(C)C)C(=O)N1CCC[C@H]1C(=O)N[C@H](C)C(N)=O [compound 25510] (Ac-[d2Nal][dPhe(4-Cl)][d3Pal]SK(Picolinoyl)[dK](Nicotinoyl)L[Lys(iPr)]P[dA]-NH2) | 100 | 39 ± 1.0 | 64 |  |  |
| COc1ccc(NC(=O)CC[C@@H](NC(=O)[C@H](CCCCNC(=O)c2cccnc2)NC(=O)[C@H](CO)NC(=O)[C@@H](Cc2cccnc2)NC(=O)[C@@H](Cc2ccc(Cl)cc2)NC(=O)[C@@H](Cc2ccc3ccccc3c2)NC(C)=O)C(=O)N[C@@H](CC(C)C)C(=O)N[C@@H](CCCCNC(C)C)C(=O)N2CCC[C@H]2C(=O)N[C@H](C)C(N)=O)cc1 [compound 25588] (Ac-[d2Nal][dPhe(4-Cl)][d3Pal]SK(Nicotinoyl)[dE](NH(4-MeO-phenyl))L[Lys(iPr)]P[dA]-NH2) | 67 | > 300 |  |  |  |
| CC(=O)N[C@H](Cc1ccc2ccccc2c1)C(=O)N[C@H](Cc1ccc(Cl)cc1)C(=O)N[C@H](Cc1cccnc1)C(=O)N[C@@H](CO)C(=O)N[C@@H](CCCCNC(=O)c1cccnc1)C(=O)N[C@H](CCCCNC(=O)c1ccccn1)C(=O)N[C@@H](CC(C)C)C(=O)N[C@@H](CCCCNC(C)C)C(=O)N1CCC[C@H]1C(=O)N[C@H](C)C(N)=O [compound 25589] (Ac-[d2Nal][dPhe(4-Cl)][d3Pal]SK(Nicotinoyl)[dK](Picolinoyl)L[Lys(iPr)]P[dA]-NH2) |  | 60 ± 1.4 | 36 |  |  |
| CC(=O)N[C@H](Cc1ccc2ccccc2c1)C(=O)N[C@H](Cc1ccc(Cl)cc1)C(=O)N[C@H](Cc1cccnc1)C(=O)N[C@@H](CO)C(=O)N[C@@H](CCCCNC(=O)c1cccnc1)C(=O)N[C@H](CCCCN(C)C)C(=O)N[C@@H](CC(C)C)C(=O)N[C@@H](CCCCNC(C)C)C(=O)N1CCC[C@H]1C(=O)N[C@H](C)C(N)=O [compound 25591] (Ac-[d2Nal][dPhe(4-Cl)][d3Pal]SK(Nicotinoyl)[dLys(Me2)]L[Lys(iPr)]P[dA]-NH2) | 82 | 262 ± 23 |  |  |  |
| CC(=O)N[C@H](Cc1ccc2ccccc2c1)C(=O)N[C@H](Cc1ccc(Cl)cc1)C(=O)N[C@H](Cc1cccnc1)C(=O)N[C@@H](CO)C(=O)N[C@@H](CCCCNC(=O)c1cnccn1)C(=O)N[C@H](CCCCNC(=O)c1cnccn1)C(=O)N[C@@H](CC(C)C)C(=O)N[C@@H](CCCCNC(C)C)C(=O)N1CCC[C@H]1C(=O)N[C@H](C)C(N)=O [compound 25650] (Ac-[d2Nal][dPhe(4-Cl)][d3Pal]SK(Pyrazinecarbonyl)[dK](Pyrazinecarbonyl)L[Lys(iPr)]P[dA]-NH2) |  | 288 | 17 |  |  |
| CC(=O)N[C@H](Cc1ccc2ccccc2c1)C(=O)N[C@H](Cc1ccc(Cl)cc1)C(=O)N[C@H](Cc1cccnc1)C(=O)N[C@@H](CO)C(=O)N[C@@H](CCCCNC(=O)c1ccccn1)C(=O)N[C@H](C[C@H]1CC[C@@H](NC(=O)c2cnccn2)CC1)C(=O)N[C@@H](CC(C)C)C(=O)N[C@@H](CCCCNC(C)C)C(=O)N1CCC[C@H]1C(=O)N[C@H](C)C(N)=O [compound 25897] (Ac-[d2Nal][dPhe(4-Cl)][d3Pal]SK(Picolinoyl)[dAla(cis-4-NHCOPyz-cHex)]L[Lys(iPr)]P[dA]-NH2) |  | 28 ± 7.5 |  |  | AOA %/μg 0.25 (4-day cycling rats; 0.25 μg sc in corn oil): 73%; AOA/μg 0.25 (4-day cycling rats; Table III, 0.25 μg sc): 73; AOA/μg 0.5 (4-day cycling rats; Table III, 0.5 μg sc): 100; EDea (rat mast cells; Table XIV, unit not given): 28 |

Reference: patent US5763404A, “Methods for using LHRH antagonists with low histamine release” (priority 1995, dated 1998)
